Experimental findings from paper PMC9204602, “Optimized Anchor-Modified Peptides Targeting Mutated RAS Are Promising Candidates for Immunotherapy” (Frontiers in Immunology, 2022) are described below.

No end group written: not given here.

In the assay the target is HLA-A*03:01 (Homo sapiens, UniProt P04439). In words: MHC-I stabilization assay, T2 cells transfected with HLA-A*03:01. As to conditions: Table S2; T2 cells transfected with HLA-A*03:01, stabilization, serum-free RPMI, 4 hours, 37°C, peptide from 100 µM, flow cytometry MFI (GAP.A3); analyzed three times, mean; read-out: EC/IC50 (M) Binding assay: EC50, HLA-A*03:01. (In general: In flow cytometry, cells or beads pass a laser one at a time.)
`CC(C)[C@H](N)C(=O)N[C@H](C(=O)N[C@H](C(=O)NCC(=O)N[C@@H](C)C(=O)N[C@@H](CO)C(=O)NCC(=O)N[C@H](C(=O)NCC(=O)N[C@@H](CCCCN)C(=O)O)C(C)C)C(C)C)C(C)C`: the EC50 came out at 7.8e-05 M.
To VVGARGVGK belongs 0.000695 M.
Next, `CC(C)[C@H](N)C(=O)N[C@H](C(=O)NCC(=O)N[C@@H](C)C(=O)N[C@@H](CO)C(=O)NCC(=O)N[C@H](C(=O)NCC(=O)N[C@@H](CCCCN)C(=O)O)C(C)C)C(C)C`: 0.000174 M.
